Measurements from article PMC4242493.
The other results are listed elsewhere or left out. The list includes weakly bound sequences.

Each sequence was assayed against MaxL homodimer (UniProt P61244) (assay: universal protein-binding microarray (PBM)). Conditions: PBS-based mixture, 10 nM His-tagged protein dimer, 2% milk, 200 ng/uL BSA, 50 ng/uL salmon testes DNA, 0.02% TX-100; detection with Alexa 488 anti-His …; high values mean tight binding; most listed sequences are background and not binding sites; double strand, one strand shown.
Sequence of UniProt P61244 (P61244 whole entry): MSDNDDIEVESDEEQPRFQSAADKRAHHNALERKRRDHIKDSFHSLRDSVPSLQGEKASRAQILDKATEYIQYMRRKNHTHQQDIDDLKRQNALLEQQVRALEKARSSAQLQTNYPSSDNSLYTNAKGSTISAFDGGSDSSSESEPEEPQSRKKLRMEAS

Sequence	binding signal (normalized occupancy)
CGCAAGGC	0.0706
AAAGACCA	0.077
AAATGGGC	0.066
GCCAACCC	0.08
CTAATTAC	0.0753
ACAGTTCG	0.0722
AATTACAC	0.0784
ACGACGGG	0.0787
GATGAGTA	0.0773
AGTTGAAG	0.0735
CACATTGG	0.0977
AGGCGAAT	0.0739
CGATAGGA	0.0771
ATAGGAGC	0.0794
GGGGTGCA	0.077
CAGACCCC	0.085
AAACCAAG	0.0725
CCTAACGC	0.0772
GAAAATGA	0.0795
CGGCCGCA	0.0694
CAAAAAGA	0.0763
CTACGGGC	0.067

Sequence	binding signal (normalized occupancy)
CTTTGAAA	0.0757
TAAAGGAA	0.0741
CAGTGCAG	0.0706
AACCATTG	0.0747
AGGTAGCG	0.0722
ACAGCCCA	0.0784
ATCAGTCA	0.0756
AAAGAGTT	0.0687
CCTAGTAC	0.0781
CGCTGCAA	0.0735
CATTGCAC	0.0792
GTGCATAA	0.0861
AATATTGC	0.073
GCCCCGAC	0.0707
AATTGAAG	0.0708
CTTAACCC	0.0738
CCAGGGTA	0.0747
AAGATTCA	0.0761
ATCGTAGC	0.0757
ATAGATGC	0.075
ATCACCTA	0.0828
AACCTTAT	0.0748

Sequence	binding signal (normalized occupancy)
AACGGGAA	0.0728
GATACCGA	0.0705
AAAGAGGC	0.072
ACCGGCGC	0.0689
CTACCTGC	0.0706
GCTCGAGA	0.0767
CATAACCC	0.0804
AACACCGG	0.0717
AGCATCTG	0.0764
ATGAGTAG	0.0813
CCACCCCG	0.0838
ACGACCGT	0.0705
CGCTGCTA	0.0695
AACCGACG	0.0669
GATAATAA	0.0816
CACTGTCG	0.0711
CACAATAA	0.0762
CAGGTTAG	0.0732
GGAAAAAA	0.0713
AACAAAAA	0.0685
CATAGAGG	0.0793
CATGCGAG	0.0975

Sequence	binding signal (normalized occupancy)
GTACGATA	0.0786
ATTAGTTA	0.078
GCAGCCAA	0.0742
AATGCCTA	0.0747
GTGTTGGA	0.0806
CCAGCTTC	0.0657
CGACCGAC	0.076
CGGTTACG	0.071
ACACTAAT	0.0825
ATTGTCCC	0.074
CATATGCC	0.095
AGAGGATG	0.0826
AGTCATGG	0.0855
CCAGGTGC	0.0833
GGCCGAAC	0.067
ACAAGCGA	0.0756
AGTGGTGA	0.0801
CTACTCCC	0.0756
AGATTGCC	0.0732
ACCGTAGC	0.0736
